Our source for the inhibition values is ChEMBL document CHEMBL3045425, “Isolation and identification of precocenes and piperitone from essential oils as specific inhibitors of trichothecene production by Fusarium graminearum” (J Agric Food Chem, 2009).

For this assay, the system named is Fusarium graminearum. The experiment in a line: Inhibition of 3-acetyldeoxynivalenol production by Fusarium graminearum in liquid culture at 3 to 30 uM at 26.5 degC measured after 48 to 144 hr by thin layer chromatography.

Each structure is given as a SMILES string. Calls of active or inactive are those of the source. The calls are words filed in the database; no cut-off is given here.

Take `COc1cc2c(cc1OC)OC(C)(C)C=C2` [PROCOCENE II]: the inhibition entry was “Active”.
